# Measured values published in PubChem BioAssay AID1745853 (National Center for Advancing Translational Sciences (NCATS), 2022).
# This is one part of the list. Shown are side measurements of this screen, not its main read-out; they come without a call.
# Legend:
# Experiment in all cases: Primary Screen for Target Class Profiling of Small Molecule Inhibitors of Methyltransferases
# [1] = target: Glycine N-methyltransferase (Homo sapiens) (UniProt Q14749); conditions: purified enzyme, MTase-Glo SAH luminescence; measured here: GNMT inhibition; at 40 µM; stronger effect = lower value
# Outline: (§1)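 Each enzyme was reacted with SAM and its substrate, with compounds tested once at 40 uM; SAH formed was read by MTase-Glo luminescence.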
# [2] = target: Guanidinoacetate N-methyltransferase (Homo sapiens) (UniProt Q14353); conditions: purified enzyme, MTase-Glo SAH luminescence; measured here: GAMT inhibition; at 40 µM; stronger effect = lower value
# Outline: as §1
# [3] = target: Histamine N-methyltransferase (Homo sapiens) (UniProt P50135); conditions: purified enzyme, MTase-Glo SAH luminescence; measured here: HNMT inhibition; at 40 µM; stronger effect = lower value
# Outline: as §1
# [4] = target: Nicotinamide N-methyltransferase (Homo sapiens) (UniProt P40261); conditions: purified enzyme, MTase-Glo SAH luminescence; measured here: NNMT inhibition; at 40 µM; stronger effect = lower value
# Outline: as §1
# [5] = target: Phenylethanolamine N-methyltransferase (Homo sapiens) (UniProt P11086); conditions: purified enzyme, MTase-Glo SAH luminescence; measured here: PNMT inhibition; at 40 µM; stronger effect = lower value
# Outline: as §1
# % is set by controls: 0 for no effect and ±100 for the full control effect.
Compound,"activity change, negative = inhibition [1]","activity change, negative = inhibition [2]","activity change, negative = inhibition [3]","activity change, negative = inhibition [4]","activity change, negative = inhibition [5]"
COCCn1c(C)cnc1CCNC(=O)c1cc(C)nn1C,0.731%,1.59%,-0.586%,-1.49%,12.7%
COC(=O)C1=C[C@@H](O)[C@@H](O)[C@H](O[C@@H]2O[C@H](COC(=O)/C=C/c3ccccc3)[C@@H](O)[C@H](O)[C@H]2O)C1,2.12%,-2.75%,4.62%,-13.3%,1.19%
C#CCNC(=O)C1CCc2nnc(C3CCN(C(=O)Nc4ccc(Cl)cc4)CC3)n21 (stereo not given),-2.63%,-3.78%,-2.23%,-6.63%,-4.22%
Cc1nn(C)c(=O)n1C1CCN(S(=O)(=O)c2cccs2)CC1,-0.1%,-0.544%,3.45%,-1.06%,-1.66%
Cc1cccc(N2C(=O)c3cc(-c4cccs4)nn3CC2(C)C(=O)NC2CCCCC2)c1C (stereo not given),-8.31%,-0.904%,-3.98%,-1.89%,-8.34%
COc1cccc(-c2cccc(CN3CCCC3C(=O)N3CCCCC3)c2)c1 (stereo not given),-9.92%,-10.1%,-10.9%,-21.5%,-17.2%
C[C@@H]1CC[C@]2(C(=O)O)CC[C@]3(C)C(=CCC4[C@@]5(C)CC[C@H](O)[C@](C)(C(=O)O)C5CC[C@]43C)C2[C@]1(C)O (stereo not given in full),-0.085%,0.7%,9.34%,-15.5%,-7.85%
CC1(C(=O)NC2CCCCC2)Cn2c(cc3ccccc32)C(=O)N1CCN1CCOCC1 (stereo not given),-2.45%,4.99%,-1.23%,-2.8%,-0.271%
Cc1nncn1C1CN(S(=O)(=O)c2ccc3c(c2)CCC3)C1,-1.24%,0.487%,2.28%,-3.92%,8.21%
CC(=O)C=C=C1C(C)(C)CC(O)CC1(C)O[C@@H]1O[C@H](CO[C@H]2OC[C@](O)(CO)[C@H]2O)[C@@H](O)[C@H](O)[C@H]1O (stereo not given in full),-8.92%,-25.6%,3.27%,-35.2%,-0.551%
COc1ccccc1C(=O)N1CCCC(CN2CCC(C)CC2)CC1 (stereo not given),-3.23%,-4.13%,-9.88%,-2.01%,-0.94%
CCOC(=O)[C@H](CCc1ccccc1)CC1(C(=O)N[C@H]2CCc3ccccc3N(CC(=O)O)C2=O)CCCC1,4.94%,4.66%,7.16%,-13.9%,-1.97%
COc1ccc2cc3n(c2c1)CC(C)(C(=O)NC1CCCCCC1)N(Cc1cccs1)C3=O (stereo not given),1.63%,0%,2.95%,-10.6%,-1.04%
COc1cc(-c2nnc3n(CCc4ccccc4)c(=O)c4ccccc4n23)ccc1O,-7.12%,5.53%,-0.221%,3.32%,-4.37%
CCCN1C(=O)c2c(C(=O)Nc3ccccc3CC)ncn2CC1(C)C(=O)NCc1ccc(C)cc1 (stereo not given),4.57%,0%,15.1%,3.58%,11.7%
Cc1[nH]cnc1-c1nccn1CC(CO)Cc1cccs1 (stereo not given),-4.25%,-9.47%,-20.4%,-16.5%,-13.6%
Cc1ccc(C)c(N2CCN(C(=O)Cn3c(=O)oc4cc(S(=O)(=O)N5CCCC5)ccc43)CC2)c1,16.4%,0.558%,14.7%,7.27%,10%
CN1C(=O)c2cc(C(=O)NCCc3ccccc3)nn2CC1(C)C(=O)NC1CCCCCC1 (stereo not given),7.69%,2.16%,5.13%,8.43%,1.91%
CCOc1ccc(N2C(=O)c3cc4sccc4n3CC2(C)C(=O)NC2CCCCCC2)cc1 (stereo not given),-6.51%,4.92%,-4.6%,-4.72%,-5.83%
